Data published in a collection of fitness landscapes (doi:10.1126/science.1257360).
Some of the results follow.

B1: PhoQ; a variant is named by its letters at X, in order, P23837 (parent)
chain: MKKLLRLFFPLSLRVRFLLATAAVVLVLSLAYGMVALIGYSVSFDKTTFRLLRGESNLFYTLAKWENNKLHVELPENIDKQSPTMTLIYDENGQLLWAQRDVPWLMKMIQPDWLKSNGFHEIEADVNDTSLLLSGDHSIQQQLQEVREDDDDAEMTHSVAVNVYPATSRMPKLTIVVVDTIPVELKSSYMVWSWFIYVLSANLLLVIPLLWVAAWWSLRPIEALAKEVRELEEHNRELLNPATTRELTSLVRNLNRLLKSERERYDKYRTTLTDLTHSLKTPLXXLQXXLRSLRSEKMSVSDAEPVMLEQISRISQQIGYYLHRASMRGGTLLSRELHPVAPLLDNLTSALNKVYQRKGVNISLDISPEISFVGEQNDFVEVMGNVLDNACKYCLEFVEISARQTDEHLYIVVEDDGPGIPLSKREVIFDRGQRVDTLRPGQGVGLAVAREITEQYEGKIVAGESMLGGARMEVIFGRQHSAPKDE

Variants of: B1
Assay: enrichment ratio after two sorts for PhoP signalling (ratio (wild type AVST 3.29)); higher = more functional
Settings: with PhoP (E. coli)

Variant | enrichment ratio
RLMH | ≤ 0.25
DDEP | ≤ 0.25
DCRG | ≤ 0.25
QKMT | ≤ 0.25
IMRL | ≤ 0.25
DMIF | ≤ 0.25
HNKH | ≤ 0.25
SFRN | ≤ 0.25
RQCP | ≤ 0.25
SLNR | ≤ 0.25
SRPT | ≤ 0.25
VEFQ | ≤ 0.25
NWHW | ≤ 0.25
ISKY | ≤ 0.25
NFKP | ≤ 0.25
QRSK | ≤ 0.25
YIIL | ≤ 0.25
HTFL | ≤ 0.25
LYHA | ≤ 0.25
VIVF | ≤ 0.25
FNKD | ≤ 0.25
NPQW | ≤ 0.25
GLKW | ≤ 0.25
NDSM | ≤ 0.25

Variant | enrichment ratio
PLTV | ≤ 0.25
HFIK | ≤ 0.25
AWQQ | ≤ 0.25
PFIT | ≤ 0.25
YDRK | ≤ 0.25
QESF | ≤ 0.25
DFTC | ≤ 0.25
GPDT | ≤ 0.25
DVHN | ≤ 0.25
SMGM | 5.78
EHIK | ≤ 0.25
VPEP | ≤ 0.25
TTMY | 7.68
YWIN | ≤ 0.25
GYYD | ≤ 0.25
INEV | ≤ 0.25
RHPE | ≤ 0.25
RNEY | ≤ 0.25
VALA | 0.962
AVAT | ≤ 0.25
TRHE | ≤ 0.25
PDAY | ≤ 0.25
TLGA | 4.68
SQTM | 6.18

Variant | enrichment ratio
RWMR | ≤ 0.25
YNPE | ≤ 0.25
YMML | ≤ 0.25
VRAF | ≤ 0.25
KMQG | ≤ 0.25
AHNI | ≤ 0.25
GTQG | ≤ 0.25
KQVL | ≤ 0.25
VVQC | 12.7
MKLE | ≤ 0.25
RGRK | ≤ 0.25
YWRK | ≤ 0.25
FQST | ≤ 0.25
VEVL | 0.477
HKPG | ≤ 0.25
YHVK | ≤ 0.25
RFTS | ≤ 0.25
DQIH | ≤ 0.25
KPIF | ≤ 0.25
RMWH | ≤ 0.25
VVCW | ≤ 0.25
CNSQ | ≤ 0.25
AEKL | ≤ 0.25
FEKN | ≤ 0.25

Variant | enrichment ratio
TPKP | ≤ 0.25
EIKS | ≤ 0.25
NYLC | ≤ 0.25
DVSR | ≤ 0.25
THVQ | ≤ 0.25
FPTV | ≤ 0.25
YRPE | ≤ 0.25
EPKC | ≤ 0.25
VEKR | ≤ 0.25
DLAA | ≤ 0.25
IRFE | ≤ 0.25
KNYE | ≤ 0.25
SAVN | 8.55
PILE | ≤ 0.25
GMAA | ≤ 0.25
LAVG | ≤ 0.25
NFQY | ≤ 0.25
RRNS | ≤ 0.25
SGAT | 5.6
NLHR | ≤ 0.25
DGYP | ≤ 0.25
IGIY | ≤ 0.25
LMAQ | ≤ 0.25
ERPW | ≤ 0.25

Variant | enrichment ratio
HADW | ≤ 0.25
QYGL | ≤ 0.25
SHIF | ≤ 0.25
EKYQ | ≤ 0.25
SHSC | ≤ 0.25
IYTD | ≤ 0.25
IDVD | ≤ 0.25
ADRM | ≤ 0.25
AENS | 16
MAMK | ≤ 0.25
SETN | 7.01
VAPL | ≤ 0.25
LYWV | ≤ 0.25
DFYL | 1.73
GCVK | ≤ 0.25
YDMP | ≤ 0.25
SAIL | 2.01
GLLR | ≤ 0.25
NPTE | ≤ 0.25
YSRQ | ≤ 0.25
VWPY | ≤ 0.25
QIPM | ≤ 0.25
RELQ | ≤ 0.25
EECV | ≤ 0.25

Variant | enrichment ratio
LDFY | ≤ 0.25
RTVV | ≤ 0.25
MYNV | ≤ 0.25
GWWN | ≤ 0.25
MDEY | ≤ 0.25
LFVV | ≤ 0.25
WNLL | ≤ 0.25
MCTT | ≤ 0.25
WGVF | ≤ 0.25
PGMH | ≤ 0.25
NCRH | ≤ 0.25
RWWL | ≤ 0.25
RHQE | ≤ 0.25
LNHF | ≤ 0.25
QPPH | ≤ 0.25
DPHP | 0.272
FREN | ≤ 0.25
AWTQ | ≤ 0.25
IFYD | ≤ 0.25
AWFM | ≤ 0.25
HPDQ | ≤ 0.25
MQID | ≤ 0.25
WDWC | ≤ 0.25
DCHL | ≤ 0.25

Variant | enrichment ratio
ALID | ≤ 0.25
HYFY | ≤ 0.25
NLWC | ≤ 0.25
AVGG | 3.35
PASY | ≤ 0.25
RCIQ | ≤ 0.25
SSDF | 0.297
WYIH | ≤ 0.25
VAFR | ≤ 0.25
NPYD | ≤ 0.25
ICAF | ≤ 0.25
KSET | ≤ 0.25
AMFF | ≤ 0.25
IKPS | ≤ 0.25
PWRN | ≤ 0.25
GKIR | ≤ 0.25
KMWP | ≤ 0.25
HIFG | ≤ 0.25
GSIF | 5.29
MAPD | ≤ 0.25
YCDK | ≤ 0.25
EYNN | ≤ 0.25
QHFI | ≤ 0.25
FDHY | ≤ 0.25

Variant | enrichment ratio
TKNK | ≤ 0.25
ATFK | 0.322
TMVL | ≤ 0.25
FLKY | ≤ 0.25
WDGR | ≤ 0.25
KTHV | ≤ 0.25
IWDK | ≤ 0.25
MLWV | ≤ 0.25
DWRC | ≤ 0.25
IHWD | ≤ 0.25
PRHC | ≤ 0.25
KVTF | ≤ 0.25
KYTF | ≤ 0.25
FLPV | ≤ 0.25
SKQH | ≤ 0.25
WWVY | ≤ 0.25
HFGE | ≤ 0.25
EKGS | ≤ 0.25
MTVM | 12.8
HEAD | ≤ 0.25
WRHS | ≤ 0.25
EKGC | ≤ 0.25
IIHQ | ≤ 0.25
EHQC | ≤ 0.25

Variant | enrichment ratio
SQIP | ≤ 0.25
IEHC | ≤ 0.25
EDWQ | ≤ 0.25
TTSC | 10.3
YSDH | ≤ 0.25
TLRN | ≤ 0.25
WIYY | ≤ 0.25
YMRE | ≤ 0.25
PGGH | ≤ 0.25
WVYD | ≤ 0.25
LNPP | ≤ 0.25
HKEC | ≤ 0.25
YHYH | ≤ 0.25
FILT | ≤ 0.25
NSDG | ≤ 0.25
NILN | ≤ 0.25
YSYL | ≤ 0.25
TPCM | ≤ 0.25
LQLH | ≤ 0.25
QPYK | ≤ 0.25
FWWY | ≤ 0.25
IRNI | ≤ 0.25
IMYA | ≤ 0.25
GWEA | ≤ 0.25

Variant | enrichment ratio
MSNS | ≤ 0.25
AVVS | 1.39
HQVI | ≤ 0.25
YNWH | ≤ 0.25
SALR | 2.39
IHGS | ≤ 0.25
FEIY | ≤ 0.25
LYKS | ≤ 0.25
GWYS | ≤ 0.25
DDPG | ≤ 0.25
KTMR | ≤ 0.25
PTTF | ≤ 0.25
SGST | 9.85
AKGY | ≤ 0.25
TSRP | ≤ 0.25
NQCS | ≤ 0.25
DMPL | ≤ 0.25
NLFG | ≤ 0.25
AWAP | ≤ 0.25
WDWR | ≤ 0.25
WTVL | ≤ 0.25
NVWP | ≤ 0.25
NPHL | ≤ 0.25
LLFK | ≤ 0.25

Variant | enrichment ratio
WGTI | ≤ 0.25
KCSH | ≤ 0.25
FHTQ | ≤ 0.25
TRSF | ≤ 0.25
VTWK | ≤ 0.25
DART | ≤ 0.25
HCYV | ≤ 0.25
PSMT | ≤ 0.25
SCGW | 20.5
SSNT | ≤ 0.25
RQEC | ≤ 0.25
PCIT | ≤ 0.25
THQG | 6.61
YNDV | ≤ 0.25
LYLI | ≤ 0.25
TLFY | ≤ 0.25
WPYA | ≤ 0.25
FKSK | ≤ 0.25
YHCS | ≤ 0.25
HGDL | ≤ 0.25
NFIQ | ≤ 0.25
PLKF | ≤ 0.25
PYLQ | ≤ 0.25
PMPE | ≤ 0.25

Variant | enrichment ratio
ENMR | ≤ 0.25
LQPD | ≤ 0.25
HTVN | ≤ 0.25
MIHI | ≤ 0.25
ETYP | ≤ 0.25
VQCG | ≤ 0.25
SWWI | ≤ 0.25
IWFK | ≤ 0.25
KKIR | ≤ 0.25
IGIT | ≤ 0.25
KSTL | ≤ 0.25
KFWF | ≤ 0.25
GIVC | 4.3
DPCK | ≤ 0.25
ACFE | ≤ 0.25
IAQF | ≤ 0.25
GEIS | 20.8
NDKY | ≤ 0.25
LEAW | ≤ 0.25
LCWS | ≤ 0.25
TIGQ | 3.58
WMCQ | ≤ 0.25
GCPS | ≤ 0.25
THHE | ≤ 0.25

Variant | enrichment ratio
IQDW | ≤ 0.25
DFKR | ≤ 0.25
LECA | ≤ 0.25
MNLN | ≤ 0.25
MPND | ≤ 0.25
PKQH | ≤ 0.25
IFQA | ≤ 0.25
WHFH | ≤ 0.25
PGRY | ≤ 0.25
SIPD | ≤ 0.25
YMFA | ≤ 0.25
LNTP | ≤ 0.25
DQHS | ≤ 0.25
QHTI | ≤ 0.25
KQKF | ≤ 0.25
RFNA | ≤ 0.25
QGHR | ≤ 0.25
SICS | 16.9
